The source of these data is PubChem BioAssay (NCI).

SMILES strings stand for the structures.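 Briefly, cells in 96-well plates were exposed to five compound concentrations for 48 h, and endpoints were estimated by linear interpolation. GI50 is the concentration that inhibits growth by half. TGI: concentration producing complete growth inhibition.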

The test system of the assay is NCI-H322M lung. In words: inhibition of tumour cell growth, NCI panel, 48 h.
`O/N=C(\CSc1nnc(-c2c[nH]c3ccccc23)n1-c1ccccc1)c1ccc(Br)cc1`: the GI50 is 4.8 µM and the TGI was 24.2 µM.
For `CC(=O)c1ccc(Nc2nc(SC(C)C)nc(-c3ccccc3)c2C#N)cc1` the same measures were 11.7 µM and over 100 µM.
For `COC[C@@H](CC(C)C)N=C1N/C(=C\c2ccc3ncsc3c2)C(=O)N1C` the same measures were 2.32 µM and over 100 µM.
